In all, about 310,000 compounds went through this assay and about 14,000 (4.5%) showed an effect of 50% or more. Effects have a minus sign here. The list shows a part of the results.
Biological target: human ether-à-go-go-related gene (hERG) potassium channel (human, UniProt Q12809)
Assay: primary screen, population patch clamp on CHO cells stably expressing hERG
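Note: peak tail current of the secondary pulse compared with the same well before compound.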

human ether-à-go-go-related gene (hERG) potassium channel, sequence (Q12809 whole entry, looked up): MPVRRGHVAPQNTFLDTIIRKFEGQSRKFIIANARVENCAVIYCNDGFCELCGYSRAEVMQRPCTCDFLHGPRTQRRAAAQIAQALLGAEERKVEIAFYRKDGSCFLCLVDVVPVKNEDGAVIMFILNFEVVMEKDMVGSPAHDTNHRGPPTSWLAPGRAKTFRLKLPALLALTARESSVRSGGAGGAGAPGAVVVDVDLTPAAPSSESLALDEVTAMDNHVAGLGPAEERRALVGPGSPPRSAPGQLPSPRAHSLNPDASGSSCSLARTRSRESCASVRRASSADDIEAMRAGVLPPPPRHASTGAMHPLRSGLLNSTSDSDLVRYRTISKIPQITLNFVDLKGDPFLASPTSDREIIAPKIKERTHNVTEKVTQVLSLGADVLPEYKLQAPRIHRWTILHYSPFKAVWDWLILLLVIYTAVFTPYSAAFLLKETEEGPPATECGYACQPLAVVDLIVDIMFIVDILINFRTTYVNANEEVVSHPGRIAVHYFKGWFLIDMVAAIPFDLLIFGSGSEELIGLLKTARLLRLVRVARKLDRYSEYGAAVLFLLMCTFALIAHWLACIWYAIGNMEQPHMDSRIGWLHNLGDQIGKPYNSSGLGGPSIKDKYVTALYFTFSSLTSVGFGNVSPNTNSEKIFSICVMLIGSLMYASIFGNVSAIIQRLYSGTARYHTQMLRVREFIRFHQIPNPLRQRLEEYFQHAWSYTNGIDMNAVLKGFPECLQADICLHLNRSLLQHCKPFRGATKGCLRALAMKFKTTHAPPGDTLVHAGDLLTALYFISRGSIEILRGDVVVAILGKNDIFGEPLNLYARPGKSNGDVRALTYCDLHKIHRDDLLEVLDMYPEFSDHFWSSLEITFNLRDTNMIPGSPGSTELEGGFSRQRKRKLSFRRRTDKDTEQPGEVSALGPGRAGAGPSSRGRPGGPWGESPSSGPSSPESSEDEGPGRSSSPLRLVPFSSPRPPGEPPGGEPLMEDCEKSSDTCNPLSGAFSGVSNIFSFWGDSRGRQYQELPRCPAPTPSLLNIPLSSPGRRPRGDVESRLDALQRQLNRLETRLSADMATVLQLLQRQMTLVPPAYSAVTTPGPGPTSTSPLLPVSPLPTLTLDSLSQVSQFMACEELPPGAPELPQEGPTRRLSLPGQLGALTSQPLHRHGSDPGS

Row | Compound | hERG current change (%, negative = inhibition) at 10uM
1 | O=C1CC(NCc2ccco2)C(=O)N1CCc1ccccc1 (stereo not shown) | 5.23%
2 | Cc1cc(=O)oc2cc(O[C@@H]3O[C@H](CO)[C@H](O)[C@H](O)[C@H]3O)ccc12 | 12.2%
3 | CCn1c(C(=O)O)c(CC(=O)Nc2ccccc2OC)c2ccccc21 | 2.15%
4 | O=C(NCc1ccncc1)c1ccc(Cl)c(S(=O)(=O)N2CCOCC2)c1 | 12.4%
5 | C/C(N)=C(/C#N)C(=O)COC(=O)c1ccc(NC(N)=O)cc1 | 14.6%
6 | O=C(NCc1nc2ccccc2[nH]1)C1=C[C@H](C2CCCCC2)C[C@H](OCCCCO)O1 | -22.9%
7 | O=C(CCN1CCOCC1)N/N=C/c1cc([N+](=O)[O-])ccc1OC(F)F | 7.85%
8 | CCOc1ccc(N2C(=O)Cc3ccccc3C2=O)cc1 | 20.8%
9 | COc1ccc(-n2c(C)cc(/C=C3\SC(=S)N(Cc4ccco4)C3=O)c2C)cc1 | 14.2%
10 | COCCn1c(C)cc(C(=O)COC(=O)c2ccc(Cl)c(S(N)(=O)=O)c2)c1C | -8.74%
11 | COc1ccc(CNC(=O)CC(C)c2ccccc2)cc1 (stereo not shown) | 9.14%
12 | COc1cccc(CNCc2ccc(C(=O)O)cc2)c1OC.Cl | 12.9%
13 | Cc1ccc(C(=O)N2CCC3(CC2)NCCc2[nH]cnc23)cc1 | -53.9%
14 | Cc1cc(N/N=C/c2ccc(O)cc2O)nc(-c2ccccc2O)n1 | -1.78%
15 | O=C(NCc1ccc2c(c1)OCO2)c1ccncc1 | -12.6%
16 | O=C(NC1CCCCC1)c1cc(-c2cccc(Cl)c2)on1 | 11.7%
17 | CN(C)CCN1C(=O)C(=O)/C(=C(/O)c2ccc(F)cc2)C1c1ccccc1 (stereo not shown) | 10.8%
18 | Cc1ccc(NC(=O)[C@H](NC(=O)[C@@H]2Cc3ccccc3CN2)c2ccccc2)cc1 | -64.1%
19 | CCC(=O)Nc1ccc(NC(=O)CSc2nnc(-c3ccc(O)cc3)n2CC2CCCO2)cc1 (stereo not shown) | 6.42%
20 | CC(=O)c1c(Nc2cccc(F)c2)oc(C)cc1=O | 12.6%
21 | CC1Oc2ccccc2N(CC(=O)NCc2ccccc2)C1=O (stereo not shown) | 6.53%
22 | COc1ccc(C2NC(=O)N(C)C(C)=C2[N+](=O)[O-])cc1 (stereo not shown) | 3.3%
23 | O=C(CCCC(=O)Nc1cccc(Br)c1)N/N=C/c1cc([N+](=O)[O-])ccc1O | -11.5%
24 | CCOc1cc(C(=S)N2CCCC2)ccc1OC(=O)Cc1ccc(F)cc1 | 7.36%
25 | CCn1nnc(NC(=O)c2cccnc2Cl)n1 | 12%
26 | Cc1ccccc1/C=N/NC(=O)c1ccc(-n2cnnn2)cc1 | 12.7%
27 | Cc1cccc(NC(=O)C2c3ccccc3C(=O)N3CCc4ccccc4C23)n1 (stereo not shown) | -37.3%
28 | CCCS(=O)(=O)N1CCN(CC2CC=CCC2)CC1.O=C(O)C(=O)O (stereo not shown) | -6.27%

Row | Compound | hERG current change (%, negative = inhibition) at 10uM
29 | CC1=NN(Cc2ccccc2)C(=O)C1 | -0.313%
30 | Cn1c(-c2ccccc2)cc2c3no[n+]([O-])c3ccc21 | 12.9%
31 | Cc1ccn2c(C(=O)N/N=C\c3ccc4c(c3)OCO4)c(C)nc2c1 | -17.9%
32 | CCOc1ccc2[nH]c(=O)c(C(c3nnnn3Cc3ccco3)N3CCC(C)CC3)cc2c1 (stereo not shown) | -11.2%
33 | O=C(CSc1nc2cccnc2n1Cc1ccccc1)NCc1ccco1 | -37.4%
34 | CC(C)NC(=O)CN(C(=O)CCC(=O)Nc1nccs1)c1ccc(C(C)C)cc1 | 5.56%
35 | COc1cc(OC)c(NC(=O)CCCNC(=O)Cn2cnc3sc(C)c(C)c3c2=O)cc1Cl | 9.77%
36 | N#CC[C@H](Cc1ccccc1)N1CC[C@@H](NC(=O)OCc2ccccc2)CCC1=O | -45.1%
37 | Cc1cc(C)c(S(C)(=O)=O)c(Oc2ccc(F)cc2)n1 | 8.08%
38 | COc1ccc(-n2c(O)c(C(C)=Nc3ccc4c(c3)CCC4)c(=O)[nH]c2=O)cc1 | -8.87%
39 | CN(CC(=O)N1CC(=O)N(CCc2ccccc2)C(=O)C1)S(=O)(=O)c1cccc2nsnc12 | -35.4%
40 | Cc1ccc(-n2ncc(C(=O)N3CCc4ccccc4C3)c2NC(=O)c2ccco2)cc1C | -0.542%
41 | NC(=O)C1CCN(CC(=O)Nc2cccnc2Cl)CC1 | 19.4%
42 | COc1ccc(OC)c(NC(=O)c2cc(-c3cc(C)cc(C)c3O)n[nH]2)c1 | 12.3%
43 | O=C1CC(N2CCN(c3ccccc3F)CC2)C(=O)N1c1ccc(F)cc1 (stereo not shown) | -3.16%
44 | CCCCOC(=O)C1[C@H]2C(=O)N(c3ccccc3CC)C[C@]23C=C[C@H]1O3 (stereo partly shown) | 5.13%
45 | c1ccc(C2c3c(ccc4ccccc34)Oc3ncn4nc(-c5ccco5)nc4c32)cc1 (stereo not shown) | -4.31%
46 | COc1cccc(NC(=O)c2ocnc2C)c1 | 5.26%
47 | O=C(CN1C(=O)NC2(CCCCC2)C1=O)N1CCN(S(=O)(=O)/C=C/c2ccccc2)CC1 | -4.49%
48 | CCOc1ccc(Nc2nc(NCCN3CCOCC3)nc(OC)n2)cc1 | -63.8%
49 | O=C(c1cccc(-n2cccc2)c1)N1CCN(S(=O)(=O)c2c(F)cccc2F)CC1 | -21.6%
50 | CCOC(=O)CN1C(=O)C(O)(C2CCc3ccccc3C2=O)c2ccccc21 (stereo not shown) | -3.02%
51 | Cc1ccc(NS(=O)(=O)c2cc3c4c(cccc4c2)C(=O)NC3=O)cc1 | 14.7%
52 | COCc1[nH]nc2c1C1(CCSCC1)C(C#N)=C(N)O2 | 5.33%
53 | CCOc1cccc(C(=O)NC(=S)Nc2ccccc2)c1 | 12.6%
54 | CCOc1ccc(C(CC(=O)O)NC(=O)Cc2ccccc2)cc1OC (stereo not shown) | 18.7%
55 | Cc1ccc(CN2C(=O)CCC2C(=O)NCc2cccnc2)cc1 (stereo not shown) | 5.44%

Reference: PMC4336329 (PLoS ONE, 2015)
